Test results published in patent US12121518B2, “PARP-1 and methods of use thereof” (The Board of Supervisors of Louisiana State University and …, priority 2017, dated 2024).

Assays:
MC-38 cell-based tumors = experiment: Immunoblot of protein extracts from MC-38 tumors; assay type: in vivo, mouse; conditions: olaparib 0.2 mg/kg, anti-PD1 100 μg, alone or combined
Experimental: (A) Protein extracts from MC-38 cells, RAW264.7 cells, or mouse embryonic fibroblasts derived from WT, PARP-1^+/−, or PARP-1^−/− mice were subjected to immunoblot analysis. (B) MC-38 cells (2.5×10^5) were injected s. c. into the left flanks of WT, PARP-1^+/− or PARP-1^−/− mice. Tumor sizes were measured at day 21. (C) Mice were sacrificed and tumor sections were subjected to H&E (left panels) or IHC straining (right panels) with antibodies to ICAM-1. (D) Spleen weight of mice from the different groups. (E) MC-38 cells were engrafted onto WT mice. […] Tumor volume was measured at the indicated days. (F) Mice were sacrificed at day 24 and tumor sections were subjected to IHC straining with antibodies to ICAM-1. (G) Sera from the different mouse groups were assessed for TNF-α, IL-6 or MCP-1 by ELISA. […] For (B), (D-E), and (G): p≤0.05; **, p≤0.01; ***, p≤0.001. Bar=50 μm.
Cell fractionation, protein extraction and immunoblot analysis—Tumor tissues or cells were harvested and homogenized in RIPA lysis buffer (Santa Cruz Biotechnology) containing a cocktail of protease and phosphatase inhibitors on ice. […] Protein expression signals developed by ECL (Pierce, ThermoFisher Scientific) were determined by a G:Box Gel Image Analysis System (Syngene, Cambridge, UK) equipped with the GeneSys image capture software.

[1] = tested on: bone marrow-derived MDSCs; experiment: Bone marrow-derived MDSC differentiation in vitro: viability and CD11b/Gr1 phenotype by FACS
CT-26 cell-based tumors = experiment: CT-26 cell-based colon carcinoma model in BALB/c mice; assay type: in vivo, mouse; conditions: low dose olaparib, anti-PD1, alone or combined
Text: Therefore, we used the more aggressive colon carcinoma cell line CT-26, which has a BALB/c genetic background.

## O=C(c1cc(Cc2n[nH]c(=O)c3ccccc23)ccc1F)N1CCN(C(=O)C2CC2)CC1 [olaparib]
MC-38 cell-based tumors
  PD-L1 in tumors: increase in PD-L1
  overall activation of caspases-3, -7, -8 and -9 in tumors: higher
[1]; 5 μM (FIG. 41A)
  percentage of viable differentiated cells: slight but statistically significant decrease in percentage of viable cells
[1]; low concentration 4 nM
  percentage of CD11b+/Gr1+ MDSCs: no effect
[1]; moderate concentration 0.1 μM
  percentage of CD11b+/Gr1+ MDSCs: no effect
CT-26 cell-based tumors
  tumor size / tumor burden: statistically significant reduction in tumor size
